The source gives no read counts; variants with many changes may rest on few reads.

B1: LINE1-mini (parent)
chain: GGCAGAGCUCAACACAGCGUGGCAAAGUGGCUGUGGCUAGACUGCC

The series covers variants of B1. Kind of series: self-cleavage, relative activity (ratio to wild type); higher = more cleavage; in vitro, sequencing; the parent is a self-cleaving ribozyme.
In the case of GGCAGAGCGCAACACAGCGUGGCAAAGUGGUAGUGGCUAGACUGCC, the self-cleavage turned out to be 0.03.
Next, GGCAGAGCGCAACACAGUGUGGCAAAGUGGCUGUGCCUAUACUGCC: 0.04; GGCAGAGCGCAACACACCCUGGCAAAGUGGCUGAGGCUAGACUGCC: 0.03; GGCAGAGCGCAACACACCGUGGCAAAGAGGGUAUGGCUAGACUGCC: 0.04.
Next, GGCAGAGCGCAACACAGCGUGGAAAAGUGGCUGUAGAUAGACUGCC: 0.18; GGCAGAGCGCAACAUAGCGUGGCAAGGUGGCUGUGGCAAGACUGCC: 0.14; GGCAGAGCGCAACACAGCGUGGAAAAGUAGCUGUGGCUAGACUGUC: 0.27.
The result for GGCAGAGCGCAACACAGCGUGGCAAAAUGGCUGUGGCUAGACAGAC reads 0.
Consider GGCAGAGCGCAACACAGCGUUUCAAAGUGGCUGUGGCUCAACUGCC, for which the self-cleavage amounted to 0.02.
Next, GGCAGAGCGCAACACAGCCUGGCAAAGUGGCUGUGGCUAGUCUGCC: 0.04; GGCAGAGCGCAACACAGCGUGCCAAAGUGGCUGUGGCUAUACGGCC: 0.01; GGCAGAGCGCAACACAGAGUGACAAAGUGGCUGUGGCUAGACUGCC: 0.06.
Next, GGCAGAGCGCAACACAGCGUGACAAAGUGGCUGGGACUAGACUGCC: 0.16; GGCAGAGCGCAACACAGCGUUGCAAAGUGGCAGUGGCUAGACUGCC: 0.02.
Next, GGCAGAGCGCAACACAGCGUUGCAAAGUGGCGGUGGCUAGACUGCC: 0.03; GGCAGAGCGCAACAUAGAAUAGCAAAGUGGCUGUGGCUAGACUGCC: 0.25.
Consider GGCAGAGCGCAACACAGCUUGGAAAAGUGGCUGCGGCUAGACUGCC, for which the self-cleavage worked out at 0.18.
With GGCAGAGCGCAACACAGCGUGGCAAAGUAGCUGUCGCUAGACUGCC, the self-cleavage stood at 0.05.
The result for GGCAGAGCGCAACACAGAGUGGCAAAGUGGCUGUGGCUAGAGUGCC reads 0.02; that for GGCAGAGCGCAACACAGCGUUACAAAGAGGCUGUGGCUAGACUGUC, 0.06.
Next, GGCAGAGCGCAACACAGCAUGGCAAAGUGGCUGUGACUAGACUGCC: 0.56.
Regarding GGCAGAGCGCAACACAGCGUGAGAAAGUGGCUGUGGCUGGACAGCC, the self-cleavage was 0.02.
The result for GGCAGAGCGCAACAUAGCGUGGCGAAGUGGCUGUGGCUAGACUGCC reads 0.18.
The result for GGCAGAGCGCAACACACCGUGGCAAAGUGGCUGCGGCUAGCCUGCC reads 0.04; that for GGCAGAGCGCAACACAGCGUGGCAAAGUGGUUGUGGCUAGAUUGUC, 0; that for GGCAGAGCGCAACAGAGCGGGUUAAAGUGGCUGUGGCUAGACUGCC, 0.04.
Next, GGCAGAGCGCAACACAGCGUGGGAAAGUGGCUGUGGCGAGACGGCC: 0.01.
For GGCAGAGCGCAACACAUCGUGCCAAAGUGGCUGUCGCUAGACUGCC, the self-cleavage turned out to be 0.02.
The result for GGCAGAGCGCAACACAGCGUUGCAAAGUGGCUGUGGCUAGGCUUCC reads 0.01; that for GGCAGAGCGCAACACAGCGUGGCAAAGUGGGUGUGGCUAGACUGAC, 0.04; that for GGCAGAGCGCAACACAGCGUAGCAAAGUGUCUGUGGCUAGCCUGCC, 0.04.
The result for GGCAGAGCGCAACACAGCGUGUCAAAGUGGCUGUCGCUAGACUUCC reads 0.01.
The result for GGCAGAGCGCAACACAGGGUGGCAAAGUGGCUGUGGCUAGACUGGC reads 0.09.
On to GGCAGAGCGCAACAAAGCGUGGCAAACUGGCUGUGGCUAGACUGCC, for which the self-cleavage is 0.07.
With GGCAGAGCGCAAUACAGCGUGGCAAAGUGGCCGUGGCUAGACUGCC, the self-cleavage was found to be 0.06.
GGCAGAGCGCAACACAGCGUGGCAAAGUGGUUGUGGCUAGAAUGCC: the self-cleavage turned out to be 0.02.
Next, GGCAGAGCGCAAUACAGCGUGGCAAAGUGGCUGUGGCUAGACUGAC: 0.01; GGCAGAGCGCAACACAGAGUGGUAAAGUGGCUGUGGCUAGACUGCC: 0.07.
The result for GGCAGAGCGCAACACAUCGUGGCGAAGUGGCUGUGGCUAGACUGCC reads 0.02; that for GGCAGAGCGCAACAGAGCGUGGAAAAGUGGCAGUGGCUAGGCUCCC, 0.01.
The result for GGCAGAGCGCAACACAGGAUUGCAAAGUGGCUGUGGCUAGACUGCC reads 0.03; that for GGCAGAGCGCAACACAUCGUGGCAAAGUGGCUGUGGCUAAACUGCC, 0.03.
Consider GGCAGAGCGCAACACAGCGUUGCAAAGUGGCUGUGGCUAGACUGUC, for which the self-cleavage is 0.05.
The result for GGCAGAGCGCAACAUAGCGUGGCAAAGUGGCUGUGGCUAGACUGCA reads 0.01; that for GGCAGAGCGCAACACAGCGUGGAAAAAUCGCUGUGGGUAGACUGCC, 0.
With GGCAGAGCGCAACAAAGCGUGGCAAAGUGGCUGUGGCUAGACUGGC, the self-cleavage turned out to be 0.15.
Next, GGCAGAGCGCAACACAGCGUGGCAAAGUGGAUGUGGCUAGGCUGCC: 0.02; GGCAGAGCGCAACAAAGCGUGACAAAGUGGCUGUGGCUAGACUGCC: 0.1.
Next, GGCAGAGCGCAAUACAGCGUGGCAAAGUCGCUGCGGCUAGACUGUC: 0.02.
The result for GGCAGAGCGCAACACAGCGUGGCAAAGUGGAUGCGGCUAGACUGCC reads 0.02.
GGCAGAGCGCAACACAGCGUGUCAAAGCGGCUGUGCCUAGACGGCC: the self-cleavage worked out at 0.
The result for GGCAGAGCGCAACAUAGCGUGCCAAAGUUGCUAUGGCUAGUCUGCC reads 0.06; that for GGCAGAGCGCAACACAGCGUGACAAAGUGGCUGUGGUUAGACUGCC, 0.02; that for GGCAGAGCGCAACACAGCGUUGCAAAGUGGCUGUGGCAAGACUGCC, 0.15.
Next, GGCAGAGCGCAACACAGCGUGGAAAAGUUGCUGUGGCUAGACUGCC: 0.05; GGCAGAGCGCAACACAGCUUGGGACAGUCGCUGUGGCUAGACUGCC: 0.05.

These data come from the RNAGym collection of RNA variant scans (doi:10.7554/elife.90254).
